Results published in PubChem BioAssay AID1745845 (National Center for Advancing Translational Sciences (NCATS), 2022).
Several values for one entry are separate records, joined by “and”; a condition that tells them apart may be missing. Equal entries are not always repeated. Among all 360,000 compounds or so, about 2,600 (0.72%) were called active. Inconclusive means that the source gave no clear call. Such entries were picked first, then a sample of the others. Calls follow the shape of the dose curve; as a rule, active = well fitted inhibition curve with a large enough effect; inconclusive = small, poorly fitted or top-dose-only effect; inactive = no such curve, though single readings can be large or run the other way. Potencies of inconclusive entries are doubtful fits and often do not repeat.

Assay: Primary qHTS for Inhibitors of ATXN expression; also: nearly all actives have a fitted effect of over 55% in size
Conditions: HEK-293 ATXN2-luciferase reporter, luminescence, 24 h; activity change, negative = inhibition: at 57 µM (top of the series)
In short: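 ATXN2-luciferase reporter cells (luciferase flanked by upstream and downstream ATXN2 gene portions) were treated 24 h at 37 °C with compounds at up to 57 uM. SteadyGlo luminescence gave expression; GF-AFC fluorescence gave viability.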
% is scaled to controls: 0 for no effect and ±100 for the full control effect; potency is read from the fitted curve at half-maximal effect; tags tell the direction and shape of the fitted curve.

Compound | activity change, negative = inhibition | Potency
C[C@H](CO)N1C[C@H](C)[C@H](CN(C)Cc2ccccc2)Oc2ncc(Br)cc2C1=O | inactive: -9.46% | –
C=CCC[C@@H](Cc1ccc(F)cc1)C(=O)OC[C@@H](C)NC(=O)[C@@H](CC=C)CC(=O)N[C@H](CO)Cc1ccccc1 | – | inconclusive: 39.8 µM [inhibitor, single point]
CC1CCN(C2=NC(=O)/C(=C/c3ccccc3F)S2)CC1 | inactive: 26.7% | –
Cc1c(Cl)cccc1NC(=O)CSC(N)=O | inactive: 0.417% | –
COc1cc(OC)cc(-n2c(=O)c3ccccc3n(CC(=O)NCCc3ccc(OC)c(OC)c3)c2=O)c1 | inactive: -1.57% | –
CC(C)(C)N(NC(=O)Nc1ccc(Cl)c(Cl)c1)C(=O)c1ccccc1 | – | inconclusive: 31.6 µM [inhibitor, single point]
O=C(N/N=C/c1ccccc1O)c1ccncc1 | – | inconclusive: 25.1 µM [inhibitor, partial curve] and active: 3.55 µM
CC(=O)Nc1cc(-c2ccc(N3CCN(C)CC3)cc2)cn2c(-c3ccccc3)cnc12 | – | inconclusive: 39.8 µM [inhibitor, single point]
CC(C)CC1NC(=O)c2cc3ccccc3cc2-n2c1nc1ccc(Cl)cc1c2=O (centres undefined) | inactive: 4.47% | –
CCOC(=O)C1=C(COC(=O)CCc2ccc(CC)cc2)NC(=O)NC1C (centres undefined) | inactive: 7.72% | –
Cc1nc(SC2CC(=O)N(c3cc(Cl)cc(Cl)c3)C2=O)nc2c1CCCC2 (centres undefined) | inactive: -2.79% | –
O=C(OC(c1ccc(NS(=O)(=O)c2ccccc2)cc1)(C(F)(F)F)C(F)(F)F)c1ccccc1 | – | inconclusive: 37.7 µM [inhibitor, single point]
O=c1n(CC2CO2)c(=O)n(CC2CO2)c(=O)n1CC1CO1 (centres undefined) | – | inconclusive: 3.55 µM [inhibitor, full curve]
CC(=O)N(C)C1=C(N2CCOCC2)C(=O)c2ccccc2C1=O | – | active: 1.41 µM
Cc1ccc(-c2nc(C(Cl)Cl)c3ccccc3n2)cc1 | – | inconclusive: 35.5 µM [inhibitor, single point]
Cc1ccc(NC2CCCN(C(=O)C3CCCCC3)C2)cc1C (centres undefined) | – | inconclusive: 8.91 µM [inhibitor, partial curve, poor fit]
COc1ccc(-c2ccc([C@H]3[C@@H]4C=CCC[C@@]4(C)C(=O)N3Cc3ccccc3)c(F)c2)cc1 | – | inconclusive: 28.2 µM [inhibitor, single point]
COc1cc(/C=C/C(=O)Nc2ccc(OC)c(S(=O)(=O)N3CCOCC3)c2)ccc1OCC#N | – | inconclusive: 17.8 µM [inhibitor, partial curve, poor fit]
COc1cccc(/C(C#N)=C/c2c(-c3ccc(Cl)cc3)nc3c(C)cccn23)c1 | – | inconclusive: 15.8 µM [inhibitor, partial curve, poor fit]
CC(C)(C)NC(=O)COc1ccc(CNCc2ccccn2)cc1 | inactive: -7.35% | –
CNS(=O)(=O)c1cc(C(=O)NCc2ccco2)ccc1Cl | inactive: -10.1% | –
COc1ccc(-c2ccc(C#N)c(OC)n2)cc1 | – | inconclusive: 1.89 µM [inhibitor, partial curve]

Compound | activity change, negative = inhibition | Potency
CSC(SC)=C(C#N)C(=O)c1ccccc1 | – | active: 22.4 µM
CC(C)(C)NC(=O)C12CCC(C)(c3nc4ccccc4nc31)C2(C)C (centres undefined) | – | inconclusive: 39.8 µM [inhibitor, partial curve, poor fit]
O=C(CCCCn1c(=O)[nH]c2ccsc2c1=O)N1CCN(c2cccc(Cl)c2)CC1 | – | inconclusive: 35.5 µM [inhibitor, single point]
CCN(CC)CCCNC(=O)Cn1c(-c2cccs2)cc2cc(Cl)ccc21 | – | inconclusive: 31.6 µM [inhibitor, single point]
Cc1ccc(C(=O)OCC(=O)NCc2cccc(Cl)c2)cc1S(=O)(=O)N1CCCCC1 | inactive: -20.7% | –
CCCOc1ccc(C(=O)C(CN2CCOCC2)c2ccccc2)cc1 (centres undefined) | – | active: 20 µM
CCOC(=O)c1c(C)oc2c(Cl)cc(NS(=O)(=O)c3ccc(Cl)c(C)c3)cc12 | – | inconclusive: 39.8 µM [inhibitor, single point]
O=C1CN(C(=O)CSc2nc3cc(Cl)ccc3c(=O)n2Cc2ccccc2)c2ccccc2N1 | inactive: 11.9% [at 11.3 µM] | –
Cc1ccccc1C(=O)/C=C1/c2ccccc2CC(C)(C)N1C | inactive: -18% | –
O=C(c1cc(-c2ccc(O)cc2)on1)N1CCN(c2ccc(F)cc2)CC1 | inactive: -18.2% | –
Cc1ccc(NC(=S)c2ccc(N(C)C)cc2)cc1 | inactive: 36.7% | –
Cc1cc(N/N=C/c2cccc(Cl)c2)nc(-n2nc(C)cc2C)n1 | – | inconclusive: 9.47 µM [inhibitor, partial curve]
Cc1cc(C)c2nc(NNC(=O)c3cc(-c4cccs4)nc4ccccc34)sc2c1 | – | inconclusive: 28.2 µM [inhibitor, single point]
COc1ccc(C2c3c(ncn(CCCO)c3=N)Oc3ccc4ccccc4c32)cc1OC (centres undefined) | – | inconclusive: 20 µM [inhibitor, partial curve, poor fit]
O=C(NC(=S)Nc1ccc(Cl)cn1)C(c1ccccc1)c1ccccc1 | – | inconclusive: 15.8 µM [inhibitor, partial curve, poor fit]
CCOc1ccc(Oc2ccc(Cl)cc2NC(=O)CCNC(C)=O)cc1 | – | inconclusive: 10.6 µM [inhibitor, partial curve]
CN(CC(=O)Nc1cccc(F)c1)C(=O)c1ccc(NC2CC2)c([N+](=O)[O-])c1 | inactive: -7.15% | –
CCOC(=O)C(C)(C)Sc1ncnc2nc[nH]c12 | inactive: 9.55% | –
COc1ccc(Nc2oc(COc3ccccc3OC)nc2C#N)cc1 | – | active: 10 µM
Cc1nnc(N/N=C\c2ccc(-c3cccc(C(=O)O)c3)o2)n1N | – | inconclusive: 16.8 µM [inhibitor, partial curve, poor fit]
CCOc1ccc(N=Nc2ccc(O)c3ncccc23)cc1 | inconclusive: -63.8% [inhibitor] | –
CCOC(=O)c1c(C)[nH]c(C)c1S(=O)(=O)N1CCCC(C(=O)N2CCN(c3cc(C)ccc3C)CC2)C1 (centres undefined) | – | inconclusive: 35.5 µM [inhibitor, partial curve, poor fit]
